Data as given in PubChem BioAssay AID504706 (National Center for Advancing Translational Sciences (NCATS), 2011).
Hit rate of the full screen: of about 320,000 compounds, about 200 (0.062%) were called active. Inconclusive results, whose numbers are uncertain, are shown with a selection of clear calls. Calls come from the whole dose curve; as a rule, active = well fitted activation curve with a large enough effect; inconclusive = small, poorly fitted or top-dose-only effect; inactive = no such curve, though single readings can be large or run the other way. Potencies of inconclusive entries are left out as doubtful fits.

Test: qHTS assay for re-activators of p53 using a Luc reporter; note: nearly all actives have a fitted effect of over 45% in size
Details: H1299 p53-A138V BP100-luciferase reporter, luminescence, 24 h; series mostly up to 92.2 µM
Method in brief: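 H1299 (p53-null), stable ts p53-A138V + BP100-Luc; 1000 cells/well, Opti-MEM/10% FBS; cpd 4 pt, 1:5; 24 h, 37 deg C, 5% CO2; detection reagent 10 min RT; luminescence.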
Potency is the fitted concentration of half-maximal effect; tags give direction and shape of the fitted curve.

Compound	Potency
CCCCNC(=S)N/N=C/c1ccc(OCC(=O)Nc2c(C)cc(C)cc2C)c(OC)c1	inactive
Cc1csc(SCC(=O)Nc2ccccn2)n1	inconclusive [activator, partial curve, poor fit]
CCOc1ccccc1OCC(=O)OCC(=O)c1c(N)n(CC(C)C)c(=O)n(C)c1=O	inactive
CC(C)OC(=O)Cn1nnc2c(cnn2-c2ccccc2)c1=O	inconclusive [activator, partial curve, poor fit]
O=C(Cc1ccccc1[N+](=O)[O-])NCc1ccc(Cl)cc1Cl	inconclusive [activator, partial curve, poor fit]
c1csc(C2=NNC(=NC3CCCCC3)SC2)c1	inconclusive [activator, partial curve, poor fit]
Cc1ccnc(NC(=O)c2cc([N+](=O)[O-])cc([N+](=O)[O-])c2)c1	inactive
CC(C)c1ccc(Nc2nc(CC(=O)O)cs2)cc1	inconclusive [activator, partial curve, poor fit]
Cc1cccc(NCc2ccccc2O)n1	inactive
CCOC(=O)[C@H]1[C@H]2COc3ccc(OC)cc3[C@@H]2N2C(=O)c3cc(C)ccc3NC(=O)[C@@]12C	inactive
Cc1csc(=N)n1-c1ccc(Cl)cc1	inconclusive [activator, partial curve, poor fit]
COc1ccc(NC(=O)CSCc2ccccc2C)cc1	inconclusive [activator, partial curve, poor fit]
CCOC(=O)c1cnc2c(ccc3ccccc32)c1N	inconclusive [activator, partial curve, poor fit]
CC(C)(C)c1csc(NC(=O)CCc2ccccc2)n1	active: 31.6 µM
CC1OC2(C)OC(=N)C1(C#N)C(C#N)(C#N)C2c1ccccc1 (configuration not stated)	inactive
COc1ccccc1OCC(=O)Nc1ncc(C)s1	inconclusive [activator, full curve, poor fit]
COc1cc([C@@H]2CC=C(C(=O)O)[C@H](c3ccc(F)cc3)N2S(=O)(=O)c2ccc(C)cc2)cc(OC)c1OC	inactive
Cc1ccc(-c2nnc(N3CCCCCC3)c3ccccc23)cc1	inconclusive [activator, single point]
COC(=O)c1cc(-c2c(C)oc3cc(O)ccc3c2=O)c(C)o1	inactive
Cc1cc2c(cc1C)CN(c1ccccc1)C2	inconclusive [activator, partial curve, poor fit]
O=C(Nc1ccc2c(c1)OCO2)c1cnn2cccnc12	inconclusive [activator, partial curve, poor fit]
O=C(O)c1cc(NC(=O)c2ccc(Cl)c([N+](=O)[O-])c2)cc(C(=O)O)c1	inactive
Cc1sc(NC(=O)c2ccco2)c(CN2CCC(C)CC2)c1C	inactive
Cc1c(C(=O)NCc2ccccn2)oc2ccccc12	inactive

Compound	Potency
Cc1cccc(N2CCN(CCCNC(=O)c3ccc(NC(=O)C4=CSCCO4)cc3)CC2C)c1 (configuration not stated)	inconclusive [activator, partial curve, poor fit]
Cc1ccc(N2C(=O)c3ccc(C(=O)N4CCN(c5ccc(C)c(C)c5)CC4)cc3C2=O)cc1	inactive
CS(=O)(=O)N(CCc1ccccc1)CC(=O)N1CCN(c2ccccc2F)CC1	inconclusive [activator, partial curve, poor fit]
Nc1c(C(=O)c2ccc(Cl)cc2)oc2ccccc12	inconclusive [activator, partial curve, poor fit]
COc1ccc2oc(C(=O)N3CCN(C(c4ccccc4)c4ccccc4)CC3)c(C)c2c1	inactive
C=CCn1c2ccccc2c(=O)c2cc(C#CC[C@@H](C)O)ccc21	inconclusive [activator, partial curve, poor fit]
Cc1csc2nc(=O)c3ccccc3n12	inconclusive [activator, single point]
O=C(CSc1ncc(-c2ccccc2)n1C1CCCC1)N1CCc2ccccc21	inconclusive [activator, single point]
CCCOP(=O)(c1ccc(N(C)C)cc1)C(O)c1c(Cl)cccc1Cl (configuration not stated)	inactive
Cc1ccc(-c2noc(COC(=O)c3ccco3)n2)cc1	inconclusive [activator, full curve, poor fit]
O=C(c1cnn2cccnc12)N1CCN(c2ccccc2)CC1	inconclusive [activator, single point]
C/C(=N/NC(=S)Nc1ccccc1)c1ccc2c(c1)OCO2	inconclusive [activator, partial curve, poor fit]
O=C(COC(=O)/C=C/c1ccccc1)NC(=O)NCc1ccccc1	inactive
Oc1ccc(Cl)cc1-c1cc(-c2ccco2)[nH]n1	inactive
Cc1cc(C)cc(-n2ccnc2SCC(=O)O)c1	inactive
CCCCc1nnc(NC(=O)C2CCCO2)s1 (configuration not stated)	inconclusive [activator, partial curve, poor fit]
O=C(CC1CCCC1)N1CCCC(Nc2cccc(F)c2)C1 (configuration not stated)	inactive
Cc1cc(OCC(=O)c2cccc(C(F)(F)F)c2)n2cnnc2n1	inactive
N#C/C(=C\c1ccc(OC(=O)c2ccc(Cl)s2)cc1)c1nc2ccccc2[nH]1	inconclusive [activator, partial curve, poor fit]
O=C(c1ccccc1)c1cc(-c2ccccc2)on1	inconclusive [activator, full curve, poor fit]
Cc1nc2c(ccc3nc(NC(=O)C4CC4)sc32)s1	inconclusive [activator, partial curve, poor fit]
CN(C(=O)C1CCN(S(=O)(=O)c2cccs2)CC1)c1ccccc1	inactive
COc1cc(/C=C2/SC(=S)N(Cc3ccccc3)C2=O)ccc1OS(C)(=O)=O	inconclusive [activator, partial curve, poor fit]
